About 540 (0.36%) of roughly 150,000 compounds showed an effect of 50% or more. The list shows a part of the results.
Tested on: Plasmodium falciparum
Test: Primary screen in NF54 nanoGlo assay, in single point, at 2uM, 72h; a lower Z score goes with more inhibition
Type: functional, Erythrocyte
Details: timepoint 72 hour

SMILES | % Inhibition [%] | Z score
O=C(NCc1cccc(-n2ccnc2)c1)c1ccc2c(c1)COCO2 | -9 | 1
Cc1ccc(NC(=O)Nc2c(-c3ccncc3)[nH]c3c(Cl)cccc23)cc1 | -3 | 0.53
CCCn1cnnc1CN(C)CCC(F)(F)F | -1 | 0.14
CN(Cc1ccccn1)C(=O)c1cn(C(c2ccccc2)c2ccccc2)nn1 | -1 | 0.11
O=C(O)CN(C(=O)COc1ccccc1-c1ccccc1)C1CCOCC1 | 7 | -0.97
CC(CCC1CCCC1)NC(=O)NCC1CCC(O)C1 (centres undefined) | -3 | 0.37
Cc1ccc(C(=O)N2CCN(c3oc(C4CC4)nc3C#N)CC2)cn1 | -9 | 1.45
COC(C)(c1ccccc1)c1nc([C@H]2CCO[C@@H]2C(C)(C)C)no1 (some centres undefined) | 4 | -0.71
CCC1(CN[C@@H](C)CNS(=O)(=O)C2CC2)CCC1 | -18 | 1.62
Cc1cc(C)nc(C2CN(c3nc(CC(C)C)ns3)C2)n1 | -20 | 2.22
Cc1ccn(CCNC(=O)CCc2nc3ncccc3[nH]2)n1 | -14 | 1.48
C[C@H]1CCN(CC(=O)N2CCNC2=O)c2ccccc21 | -10 | 0.89
CC(C)C[C@H](N)C(=O)N(C)C1CCCCC1 | -1 | 0.14
Cn1cccc1CNC(=O)CCC1CCCC1 | -7 | 1.33
CC(C)(C(N)=O)c1ccc(C(F)(F)F)cc1 | -4 | 0.43
CCn1cc(-c2ccc(F)cc2)cc1C(=O)N1CCCCC1 | -5 | 0.81
COC[C@@](C)(O)CNC(=O)c1ccc(C)cc1F | 0 | 0.01
CN(CC(F)(F)C(F)(F)F)C(=O)c1ccccc1-c1cncnc1 | -9 | 1.29
O=C(CNC1(c2nccs2)CCCC1)NCC(F)(F)F | -8 | 1.24
CC(C)(C)OC(=O)N1CC2(CC(=O)NCCN2C(=O)c2ccc[nH]2)C1 | -7 | 1.02
CCc1noc(CN2CCOc3c(O)cc(-c4nc(C)cnc4C)cc3C2)n1 | -6 | 0.73
CC(C)c1noc(CCNS(=O)(=O)c2ccc(Cl)c3ncccc23)n1 | -10 | 1.26

SMILES | % Inhibition [%] | Z score
Cn1cncc1C(=O)N1CCC(CCC(=O)N2CCCC2)CC1 | -1 | 0.18
CCn1ccnc1-c1cccc(NC(=O)c2ccc(=O)n(CC)n2)c1 | -10 | 1.03
Cc1nn(C)cc1C(=O)OCc1ccc(N(C)C)c(F)c1 | -2 | 0.28
CCn1cc(NC(=O)NCc2cnn(C)c2)c(C)n1 | 0 | -0.02
Cc1nc(-c2ccco2)ccc1C(=O)Nc1ncccc1O | -8 | 0.73
CCCN(CCOC)C(=O)N[C@@H](C)c1ccc(O)cc1 | 5 | -0.86
CC(=O)Nc1ccc(-c2nc3c([nH]2)c(C)nn3C2CCCC2)cc1 | -11 | 1.4
O=C(CC1(C(=O)O)CCCC1)Nc1cccc(CN2CCCCC2=O)c1 | -4 | 0.76
O=C(Cn1cc(C(F)(F)F)ccc1=O)Nc1cc(S(=O)(=O)N2CCCCC2)ccc1Cl | -17 | 3.03
COC(=O)c1nc(NC(=O)CCc2cc(OC)no2)sc1CC(C)C | -4 | 0.55
N#CC(c1ccc(Cl)cc1)N1N=C(c2ccccc2)CC1c1ccccc1 (centres undefined) | 32 | -0.64
CN(C)c1ncccc1NS(=O)(=O)CCc1cccc(F)c1 | 2 | -0.22
CCc1cc(NCc2cncn2C)ccc1C | -17 | 2.12
Cc1cccc(C(=O)N2CC[C@H](CO)C[C@@H]2C)c1C | -11 | 1.13
CNS(=O)(=O)C[C@H]1CCCN1C(=O)c1occc1C(C)C | -5 | 0.65
CN1CCOC[C@H]2CCN(C(=O)c3ccc4[nH]ccc4c3)C[C@H]21 | -5 | 0.62
O=C(NCc1ccc[nH]1)c1ccc2c(c1)OCO2 | -7 | 0.88
CC1CN(C(=O)c2ccnc(-c3ncc[nH]3)c2)C(C)CN1C (centres undefined) | -8 | 1.1
C[C@@H](C(=O)N(C)Cc1cc[nH]n1)N1CCN(C)CC1 | 2 | -0.27
C[C@H](N)c1ccc(Nc2ncc3cc(-c4ccncc4)ccc3n2)cc1 | 85 | -9.36
Cc1ccccc1-c1ccccc1C(=O)N1CC(O)(c2ncnn2C)C1 | -5 | 0.74
CCN1CCC[C@@H]1CNC(=O)c1ccc(CN2CCc3ccccc3C2)o1 | 2 | -0.29

SMILES | % Inhibition [%] | Z score
Cc1c(S(=O)(=O)NC2CC2)c(C)n(C)c1-c1nnc(C2CCC2)o1 | -9 | 1.49
Cc1cc(S(=O)(=O)N2CCCO2)ccc1F | -10 | 1.11
CCc1cnc(N)nc1NCCOc1nonc1C | -9 | 1.41
C[C@@H](CCc1ccccc1)N1CCn2ccnc2C1 | 19 | -2.68
COCC(=O)NC[C@H]1CC(C(=O)OC(C)(C)C)C[C@H]1O (some centres undefined) | -6 | 0.88
O=C(Nc1ccc2ncnc(N3CCCCC3)c2c1)C1CCCCC1 | -12 | 1.18
Cc1cccc(N2C(=O)c3ccc(C(=O)c4ccc5c(c4)C(=O)N(c4cccc(C)c4)C5=O)cc3C2=O)c1 | -9 | 1.15
c1ccc(Cn2ccnc2-c2nnn[nH]2)cc1 [BENTEMAZOLE] | 18 | -2.13
CCn1nccc1CN(C)CC(=O)Nc1ccon1 | 2 | -0.43
O=S(=O)(N1CCOCC1)N1CCC[C@H]1c1ccc(Cl)c(Cl)c1 | -15 | 1.94
Cc1ccc(-n2nc(-c3noc(CCC(=O)Nc4ccc(F)cc4F)n3)c(=O)n(C)c2=O)cc1 | -16 | 2.78
O=C(NCCOc1ccccc1)NCC1CN2CCCC2CO1 (centres undefined) | -11 | 2.14
COc1cc2c(cc1OC)CN(C(=O)Cn1c(C)nc(C#N)c1C#N)CC2 | -2 | 0.18
O=C(Nc1ccc2c(c1)OCO2)N1CCN(S(=O)(=O)c2ccc(Cl)cc2)CC1 | -8 | 0.98
Cc1nc(NC(=O)Cn2cc(C(F)(F)F)ccc2=O)sc1C | 3 | -0.47
O=C(NCN1CCOCC1)c1cccnc1 | -14 | 1.73
c1ccc(N2CCN(Cc3cc(CC4(NC5CCOCC5)COC4)no3)CC2)cc1 | 1 | -0.11
CCCN1C[C@@H](Nc2cc(COC)ncn2)CC1=O | -7 | 1.18
CCNC(=O)N(C)Cc1nccn1CC(F)(F)F | -14 | 1.87
CC(C)NC(=O)N1CCC2(CC1)C[C@@H](CC(=O)NC1CCC1)CCO2 | -9 | 1.05
CCc1cn[nH]c1[C@H]1CCCN(C(=O)c2cc(C)n3nc(C)cc3n2)C1 | -11 | 2.03
CN(C)CCNC(=O)c1cc2cc(S(=O)(=O)N(C)C)ccc2n1Cc1ccncc1 | -14 | 1.93

SMILES | % Inhibition [%] | Z score
c1cncc(OCc2cnc3ccccn23)c1 | 43 | -5.49
N#Cc1cccc(C#N)c1N1CCC(NCCOc2ccccc2)CC1 | -7 | 0.74
Cc1nccc(C(C)(C)C)c1/C(N)=N\O | -15 | 1.88
CNS(=O)(=O)N1CCC(C(=O)N2CCCc3ccccc3C2)CC1 | -6 | 1.15
Nc1n[nH]c2ccc(-c3cc(F)cc4cccnc34)cc12 | -14 | 2.7
Fc1ccc(Cl)c(CN2CCC(c3nnc[nH]3)CC2)c1 | -6 | 0.58
NCCO[C@H]1C[C@@H](O)C12CCN(C(=O)CO)CC2 | -6 | 1.1
O=C(Nc1ccc(F)c(F)c1)c1ncccn1 | -30 | 2.6
COc1ccc(NC(=O)c2cnn3c2NC(C(=O)O)=C[C@H]3c2ccccc2F)cc1 | -3 | 0.49
COc1cccc(C(=O)N2CCN(c3nc(CN4CCN(c5ccccc5OC)CC4)cc(=O)[nH]3)CC2)c1 | -19 | 1.82
CCN(CCC(F)(F)F)C(=O)NCc1ccc(C#N)cc1 | -5 | 0.64
Cc1nc(-c2ccnn2C)c2cnn(C)c2n1 | -15 | 1.62
Cc1ncc(CCN2C(=O)NC3(CCCC3)C2=O)s1 | 13 | -1.23
Cn1cnc2c1CCN(C[C@H](O)c1ccccc1Cl)C2 | 0 | 0.04
COc1ccc([C@H](C)NC(=O)C2CCN(S(=O)(=O)c3ccc4c(c3)OCCO4)CC2)cc1F | -11 | 1.29
CC(C)(Cc1ccccc1)NC(=O)C(C)(C)C | -7 | 1.33
NC(=NCc1ncccc1F)N1CCCCCC1 | -8 | 1.1
CN(C)c1ccc(C(=O)N2CC[C@H](c3cccs3)C2)cc1 | -16 | 3.13
CCOC(=O)C1CCN(C(=O)c2cnc(-c3ccc(OC)cc3)nc2N2CCN(CC)CC2)CC1 | -24 | 2.16
O=C(c1ccc(Cn2ccccc2=O)o1)N1CCN(S(=O)(=O)c2c(Cl)cccc2Cl)CC1 | -14 | 1.93
Cn1nc(-c2ccccc2)c(CN(CC2CC2)C[C@@H](O)Cc2ccccc2)c1Oc1ccc(Cl)cc1 | 3 | -0.34
